The densities may have been worked out from excess volumes.
Assay: xn = mol fraction of the nth substance listed
Settings: 102 kPa

O=C(O)C(F)(F)C(F)(F)C(F)(F)C(F)(F)F + CC[n+]1ccn(C)c1.[Cl-]
mass density [kg/m3]
Settings	x2 = 0.3346	x2 = 0.5026	x2 = 0.6636
293.15 K	1542.9	1450.6	–
298.15 K	1536.3	1445.2	1350.6
303.15 K	–	1439.8	1346.2
308.15 K	1523.4	1434.5	1342
313.15 K	–	1429.2	1337.7
318.15 K	1510.4	–	1333.4
323.15 K	1504	–	1329.8
328.15 K	1497.7	1413.5	1325.4
333.15 K	1491.3	–	–
338.15 K	–	–	1317.1
343.15 K	1478.4	1397.9	1312.9
348.15 K	1472	–	1308.6
353.15 K	–	1387.5	1304.4

Reference: a compilation of properties of binary mixtures (doi:10.1021/acs.jced.0c00588)
